# PubChem BioAssay AID1347428 (National Center for Advancing Translational Sciences (NCATS), 2020)
# Screen size: about 91,000 compounds; about 290 (0.32%) were called active. The inconclusive results got no clear call from the source; some entries with a clear call stand among them for comparison. Calls come from the whole dose curve; as a rule, active = well fitted inhibition curve with a large enough effect; inconclusive = small, poorly fitted or top-dose-only effect; inactive = no such curve, though single readings can be large or run the other way. Potencies of inconclusive entries are doubtful fits and often do not repeat.
# Target: Single-stranded DNA cytosine deaminase (Homo sapiens) (UniProt Q9GZX7)
# UniProt Q9GZX7, sequence (Q9GZX7 whole entry, looked up): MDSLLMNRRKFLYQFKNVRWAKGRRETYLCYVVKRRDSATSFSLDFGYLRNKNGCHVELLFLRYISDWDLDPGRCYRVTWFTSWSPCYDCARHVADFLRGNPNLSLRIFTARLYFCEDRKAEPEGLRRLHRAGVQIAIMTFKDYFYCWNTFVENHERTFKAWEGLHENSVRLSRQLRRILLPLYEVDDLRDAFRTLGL
# Test: Primary qHTS assay for inhibitors of Activation Induced Cytidine Deaminase (AID): AID signal; note: nearly all actives have a fitted effect of over 25% in size
# Conditions: AID deamination FRET fluorescence, UDG-coupled, 4 h; series mostly up to 115 µM
# Potency is the fitted concentration of half-maximal effect; tags give direction and shape of the fitted curve.
row,SMILES,Potency
1,COc1ccc(-n2nc3c(N4CCCC(C(=O)NCc5ccccc5C)C4)nnc(C)c3c2C)cc1 (stereo unspecified),"inconclusive: 100 µM [inhibitor, single point]"
2,O=C(NCCn1cc(SCc2ccc(C(F)(F)F)cc2)c2ccccc21)c1cccs1,"inconclusive: 39.8 µM [inhibitor, partial curve, poor fit]"
3,CCOC(=O)N1CCc2c(sc3c2c(=O)n(CCc2ccccc2)c(=O)n3Cc2ccc(C)cc2C)C1,"inconclusive: 35.5 µM [inhibitor, partial curve, poor fit]"
4,COc1ccc(-c2nc(CCNC(=O)Cc3ccc(F)cc3)cs2)cc1,"inconclusive: 28.2 µM [inhibitor, partial curve, poor fit]"
5,Cc1cccc(C(=O)Nc2nc3c(s2)CCCC3)c1,"inconclusive: 44.7 µM [inhibitor, partial curve, poor fit]"
6,CCOc1ccc(S(=O)(=O)/C=C2\NCCc3cc(OC)c(OC)cc32)cc1,inactive
7,CSc1ccc(C)c(C(=O)Nc2ccc(C)cc2C)c1,inactive
8,O=C(C1CC1)N1CCN(c2nc(-c3ccccc3)c3ccccc3n2)CC1,inactive
9,O=C(C1CCCN(S(=O)(=O)c2cccs2)C1)N1CCN(c2ccccc2F)CC1 (stereo unspecified),"inconclusive: 89.1 µM [inhibitor, single point]"
10,CCc1ccc(S(=O)(=O)c2nnn3c2nc(N2CCN(CC)CC2)c2sccc23)cc1,"inconclusive: 50.1 µM [inhibitor, partial curve, poor fit]"
11,COc1ccc(C(=O)c2cn(Cc3ccc(F)cc3)c3c(F)cc(F)cc3c2=O)cc1,"inconclusive: 14.1 µM [inhibitor, full curve, poor fit]"
12,COc1ccc(CCNC(=O)c2cc3cccc4c3n2CC(C)S4)c(OC)c1OC (stereo unspecified),"inconclusive: 50.1 µM [inhibitor, partial curve, poor fit]"
13,CCCCCCCCCCOc1ccc(C(=O)O)cc1,"inconclusive: 79.4 µM [inhibitor, partial curve, poor fit]"
14,O=C(CSc1ncc(S(=O)(=O)c2ccc(Br)cc2)c(=O)[nH]1)NCc1ccccc1Cl,"inconclusive: 50.1 µM [inhibitor, partial curve, poor fit]"
15,COc1ccc(CNC(=O)c2cnn(-c3ccc(C)cc3)c2C2CCN(C(=O)OC(C)(C)C)CC2)cc1,"inconclusive: 31.6 µM [inhibitor, full curve]"
16,CNc1oc(/C=C/c2ccc(OC)c(OC)c2)nc1C#N,inactive
17,C=Cc1ccc(CSc2nc(-c3ccc(Cl)cc3)nc3c2Cc2c(CO)cnc(C)c2O3)cc1,inactive
18,CCCCN(CCCC)S(=O)(=O)c1ccc(NC(=O)c2c(-c3ccccc3)noc2C)cc1,"inconclusive: 50.1 µM [inhibitor, partial curve, poor fit]"
19,COc1ccc(-n2c(=O)c3c4c(sc3n(Cc3ccccc3)c2=O)CCC4)c(OC)c1,"inconclusive: 25.1 µM [inhibitor, full curve, poor fit]"
20,CCOC(=O)c1cccc(NC(=O)N2Cc3ccccc3Oc3ncccc32)c1,"inconclusive: 6.31 µM [inhibitor, full curve, poor fit]"
21,COc1ccc(N2CCN(CC(O)COc3ccc(C)c(C)c3)CC2)cc1 (stereo unspecified),inactive

row,SMILES,Potency
1,Cc1cccc(OC(C)C(=O)N2CCC(c3nc4ccccc4o3)CC2)c1C (stereo unspecified),"inconclusive: 56.2 µM [inhibitor, partial curve, poor fit]"
2,CC1CCc2c(sc3nnn(CC(=O)Nc4cccc(C(F)(F)F)c4)c(=O)c23)C1 (stereo unspecified),"inconclusive: 39.8 µM [inhibitor, partial curve, poor fit]"
3,COc1cccc(OCc2nc3ccccc3n2Cc2ccccc2)c1,"inconclusive: 50.1 µM [inhibitor, partial curve, poor fit]"
4,CCCN(CC)c1ccc(/C=N/NC(=S)Nc2ccc(CC)cc2)cc1,inactive
5,Cc1cccc(S(=O)(=O)c2cn(Cc3ccccc3)c3cc(N4CCC(C)CC4)c(F)cc3c2=O)c1,"inconclusive: 10 µM [inhibitor, partial curve, poor fit]"
6,COCc1cccc(C(=O)NCc2ccc(C(=O)OC)cc2)c1,inactive
7,Clc1ccc(C=Nc2ccc(Nc3ccccc3)cc2)c(Cl)c1,inactive
8,COc1cc(OC)c(NC(=O)C(C)n2c(=O)cc(-c3ccccc3)c3c(C)nn(C)c32)cc1Cl (stereo unspecified),"inconclusive: 28.2 µM [inhibitor, full curve, poor fit]"
9,N#Cc1c(SCC(=O)N2CCCC2)nc(N2CCCC2)c2c1CCCC2,"inconclusive: 39.8 µM [inhibitor, full curve]"
10,COc1ccc(NCc2nc3ccccc3n2CCOc2ccccc2C)cc1,"inconclusive: 39.8 µM [inhibitor, full curve, poor fit]"
11,COc1cccc(CNC(=O)CCc2c(C)c3cc4c(C)coc4cc3oc2=O)c1,"inconclusive: 89.1 µM [inhibitor, single point]"
12,OCCN1CCN(CCCN2c3ccccc3Sc3ccc(Cl)cc32)CC1,inactive
13,COc1ccc(C(CNC(=O)COc2cc(C)c(Cl)c(C)c2)N2CCCCC2)cc1 (stereo unspecified),"inconclusive: 39.8 µM [inhibitor, partial curve]"
14,Clc1cnc(N/N=C/c2ccc(Br)cc2)c(Cl)c1,inactive
15,C/C(CCc1oc2ccc(Br)cc2c1-c1ccc(C)o1)=N\O,inactive
16,Cn1ccc2cc(S(=O)(=O)N3CCN(C(=O)Nc4cccc(F)c4)CC3)ccc21,"inconclusive: 56.2 µM [inhibitor, partial curve, poor fit]"
17,O=C(CC1CC2CCC1C2)OCC(=O)c1ccc2c(c1)OCO2 (stereo unspecified),inactive
18,CCOc1ccccc1N(C)C(=O)c1sc2nc3n(c(=O)c2c1C)CCCC3,"inconclusive: 39.8 µM [inhibitor, partial curve, poor fit]"
19,Cc1ccc2c(CC(=O)Nc3ccc(S(=O)(=O)N4CCC(C)CC4)cc3)coc2c1,"inconclusive: 31.6 µM [inhibitor, full curve, poor fit]"
20,Cc1nn(-c2ccccc2)c2c1N(CCCC(=O)NCc1ccc(OC(C)C)cc1)C(=O)CS2,"inconclusive: 89.1 µM [inhibitor, single point]"
21,Cc1cccc(NC(c2cccc(Cl)c2)c2ccc3cccnc3c2O)n1 (stereo unspecified),"inconclusive: 12.6 µM [inhibitor, single point]"

row,SMILES,Potency
1,CCCCSCCCNC(=O)c1cn(CC)c2ccc(S(=O)(=O)N3CCOCC3)cc2c1=O,"inconclusive: 112 µM [inhibitor, partial curve, poor fit]"
2,COc1ccc(-c2c3c(=O)n(C)c(=O)n(C)c3c3n2-c2ccccc2NC3c2ccccc2OC)cc1 (stereo unspecified),"inconclusive: 35.5 µM [inhibitor, partial curve, poor fit]"
3,Cc1ccc(NCc2cccn2-c2nnc(N3CCCCCC3)s2)cc1,"inconclusive: 11.2 µM [inhibitor, full curve, poor fit]"
4,Cc1csc2nc(COC(=O)c3ccc(NC(=O)COc4ccccc4F)cc3)cc(=O)n12,"inconclusive: 15.8 µM [inhibitor, full curve, poor fit]"
5,CC(NC(=O)NOCc1ccccc1)c1ccc(C#N)cc1 (stereo unspecified),inactive
6,CCCCn1c(=O)n(-c2ccc(Br)cc2F)c(=O)c2c3c(sc21)CN(C(C)=O)CC3,"inconclusive: 79.4 µM [inhibitor, partial curve, poor fit]"
7,COc1cc2c(-c3ccccc3C)nc3c(c(C)nn3-c3ccccc3)c2cc1OC,"inconclusive: 50.1 µM [inhibitor, partial curve, poor fit]"
8,O=C(NCC(c1cccnc1)N1CCc2ccccc21)c1ccccc1Br (stereo unspecified),"inconclusive: 89.1 µM [inhibitor, partial curve, poor fit]"
9,CCOc1ccccc1NC(=O)CSc1nc2ccccc2c2nc(CCn3cncc3C)nn12,"inconclusive: 39.8 µM [inhibitor, full curve, poor fit]"
10,CS(=O)(=O)N1CCCC(c2nc3ccccc3o2)C1 (stereo unspecified),inactive
11,COc1ccc(OCCn2c(C3CC(=O)N(c4ccc(F)cc4)C3)nc3ccccc32)cc1 (stereo unspecified),"inconclusive: 56.2 µM [inhibitor, partial curve, poor fit]"
12,COc1cccc(CNC(=O)CSc2ccc(-c3sc(-c4ccccc4)nc3C)nn2)c1,"inconclusive: 44.7 µM [inhibitor, partial curve, poor fit]"
13,Cc1ccc(C)c(N2CCN(c3ncnc4c3nc3n4CCCCC3)CC2)c1,"inconclusive: 31.6 µM [inhibitor, partial curve, poor fit]"
14,CCOc1ccc2nc(N3CCN(C(=O)CS(=O)(=O)c4ccc(F)cc4)CC3)sc2c1,"inconclusive: 10 µM [inhibitor, full curve, poor fit]"
15,CCn1c(C(=O)N2CCC(C(=O)N3CCN(c4cccc(C)c4C)CC3)CC2)cc2sccc21,"inconclusive: 20 µM [inhibitor, full curve]"
16,COc1ccc(/C=C/C(=O)c2ccc(C)cc2)cc1,inactive
17,CCc1ccc(CN(Cc2ccco2)C(=O)c2ccccc2Cl)cc1,"inconclusive: 56.2 µM [inhibitor, partial curve, poor fit]"
18,O=C(CC1N=C2c3ccccc3N=C(SCC(=O)Nc3cccc(C(F)(F)F)c3)N2C1=O)NCc1cccs1 (stereo unspecified),"inconclusive: 7.94 µM [inhibitor, full curve, poor fit]"
19,CCc1ccccc1NC(=O)c1cc(S(=O)(=O)N(CC)c2ccccc2)ccc1F,"inconclusive: 15.8 µM [inhibitor, full curve, poor fit]"
